From the supplement of paper PMC8183993
Structures can show the parent of a compound that is named as a salt. ± gives the standard deviation of the averaged measurements. The full ranking holds about 3,200 compounds; the median of “nuclei count (viability) relative to DMSO” is about 99, and the lowest 2% start at about 16. This is one part of the list.

What follows are molecules tested on U2OS (assay: nuclei count (viability) relative to DMSO (% of DMSO); higher = more viable cells). Conditions: 10 µM; 24 h.
Procedure: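 Primary image-based screen in U2OS cells: compounds at 10 uM for 24 h, then a 1 h o-propargyl-puromycin (OPP) pulse, click labelling, and high-throughput microscopy. Mean cytoplasmic OPP intensity and nuclei count were normalised to DMSO wells within each plate (DMSO = 100) and averaged over triplicate plates.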

Row | Structure (SMILES) | nuclei count
1 | CCC(=O)O[C@@H](O[P@](=O)(CCCCc1ccccc1)CC(=O)N1C[C@H](C2CCCCC2)C[C@H]1C(=O)O)C(C)C [Fosinopril] | 113
2 | CCC(=O)O[C@@H](O[P@](=O)(CCCCc1ccccc1)CC(=O)N1C[C@H](C2CCCCC2)C[C@H]1C(=O)O)C(C)C [Fosinopril sodium (Monopril)] | 103
3 | CC(C)N1Cc2cc(S(C)(=O)=O)ccc2N(CCN2CC=C(c3c[nH]c4cc(F)ccc34)CC2)S1(=O)=O | 111
4 | COc1cc(-c2cn(C)c(=O)c3cnccc23)c(OC)cc1CN(C)C | 110
5 | CC1(C)S[C@@H]2[C@H](NC(=O)[C@H](N)c3ccc(O)cc3)C(=O)N2[C@H]1C(=O)O [Amoxicillin] | 100
6 | CC1(C)S[C@@H]2[C@H](NC(=O)[C@H](N)c3ccc(O)cc3)C(=O)N2[C@H]1C(=O)O [Amoxicillin (Amoxycillin)] | 103
7 | CC1(C)S[C@@H]2[C@H](NC(=O)[C@H](N)c3ccc(O)cc3)C(=O)N2[C@H]1C(=O)O [Amoxicillin sodium (Amox)] | 110
8 | Cc1cc(C(=O)NOCCO)c(Nc2ccc(I)cc2F)n(C)c1=O | 96.7
9 | Cn1cnc2c(NCc3ccccc3)nc(NCCO)nc21 [Olomoucine] | 97.3
10 | OCCOCCN1CCN(C2=Nc3ccccc3Sc3ccccc32)CC1 [Quetiapine hemifumarate] | 95
11 | Nc1nc(Cl)nc2c1ncn2[C@H]1C[C@H](O)[C@@H](CO)O1 [Cladribine] | 57.3
12 | CN[C@@H]1[C@H](O[C@H]2[C@H](O[C@H]3[C@H](O)[C@@H](O)[C@H](N=C(N)N)[C@@H](O)[C@@H]3N=C(N)N)O[C@@H](C)[C@]2(O)C=O)O[C@@H](CO)[C@H](O)[C@H]1O [Streptomycin sulfate] | 102 ± 1.6
13 | N=C(N)NC(=N)Nc1ccccc1 [1-Phenylbiguanide hydrochloride] | 95.6
14 | NCCNC(=O)c1ccc(Cl)cn1 [Lazabemide hydrochloride] | 103
15 | O=C([C@@H](Cc1cccc(C(F)(F)F)c1)NS(=O)(=O)c1cc(F)c2c(c1)CCNC2)N1CCCC1 | 103
16 | CCn1c2ccccc2c2cc(Nc3ccnc(NCCCN4CCOCC4)n3)ccc21 | 68.9
17 | O=C1[C@H](Cc2ccc(O)cc2)N2C(=O)CCN(C(=O)NCc3ccccc3)[C@H]2CN1Cc1cccc2ccccc12 | 80.8
18 | COC(=O)Nc1nc2cc(C(=O)c3ccccc3)ccc2[nH]1 [Mebendazole] | 22
19 | CC1(C)S[C@@H]2[C@H](NC(=O)[C@H](NC(=O)N3CCNC3=O)c3ccccc3)C(=O)N2[C@H]1C(=O)O [Azlocillin sodium salt] | 102 ± 1.7
20 | NCCNCCNCCNCCN [Tetraethylenepentamine pentahydrochloride] | 90.1
21 | Nc1nc2c(ncn2[C@@H]2O[C@H](CO)[C@@H](O)[C@H]2O)c(=O)[nH]1 [Guanosine] | 117
22 | Clc1cnccn1 [2-Chloropyrazine] | 112
23 | Cc1cc2c(cc1S(N)(=O)=O)S(=O)(=O)CCC2 [Meticrane] | 108
24 | CN(C)/N=N/c1[nH]cnc1C(N)=O [Dacarbazine] | 98.9
25 | CCCCCCCCc1ccc(-c2ccc(C(=O)O)cc2)cc1 | 108

Row | Structure (SMILES) | nuclei count
26 | CC[N+](C)(C)Cc1ccccc1Br [Bretylium tosylate] | 104
27 | C[N+](C)(C)CCCCCC[N+](C)(C)C [Hexamethonium dibromide dihydrate] | 95.9
28 | CC1C(=O)OC2C(O)C34C5CC(C(C)(C)C)C36C(OC(=O)C6O)OC4(C(=O)O5)C12O (stereo not given) [Ginkgolide B] | 95
29 | O=c1[nH]ccc2c(S(=O)(=O)N3CCCNCC3)cccc12 [HA 1100 hydrochloride] | 112
30 | CN1C(C)(C)CCCC1(C)C [Pempidine tartrate] | 105
31 | Cn1cc(-c2ccc3ncc(Cc4ccc5ncccc5c4)n3n2)cn1 | 97 ± 2.9
32 | CC1(C)Oc2ccc(C#N)cc2[C@@H](N2CCCC2=O)[C@@H]1O [Levcromakalim] | 104
33 | Cc1onc(-c2c(Cl)cccc2Cl)c1C(=O)N[C@@H]1C(=O)N2[C@@H]1SC(C)(C)[C@@H]2C(=O)O [Dicloxacillin sodium salt hydrate] | 97.9
34 | Cc1cc(NC(=O)Nc2ccc(N(C)C)cc2)c2cc(F)cc(F)c2n1 | 87.5
35 | CCOC(=O)[C@H](CCc1ccccc1)N[C@@H](C)C(=O)N1Cc2ccccc2C[C@H]1C(=O)O [Quinapril HCl] | 106
36 | CC(CCc1ccccc1)NCC(O)c1ccc(O)c(C(N)=O)c1 (stereo not given) [Labetalol hydrochloride] | 106
37 | O=C(O)c1cccnc1Nc1cccc(C(F)(F)F)c1 [Niflumic acid] | 97.7 ± 6.6
38 | Cc1oncc1C(=O)Nc1ccc(C(F)(F)F)cc1 [Leflunomide] | 108 ± 3.4
39 | O=c1[nH]c2cc(C(F)(F)F)c(N3CCOCC3)cc2n(CP(=O)(O)O)c1=O | 102
40 | COc1ccc(C(Cl)=C(c2ccc(OC)cc2)c2ccc(OC)cc2)cc1 [Chlorotrianisene] | 74.4
41 | O=C(O)COc1ccc(OCCNC[C@H](O)COc2ccccc2)cc1 [ICI 215,001 hydrochloride] | 107
42 | O=C[C@H](O)[C@@H](O)[C@H](O)CO [Xylose] | 97.8
43 | Cc1cc(C(C)(C)C)c(O)c(C)c1CC1=NCCN1 [Oxymetazoline hydrochloride] | 106 ± 3.4
44 | CN(C)CCCN1c2ccccc2Sc2ccccc21 [Promazine hydrochloride] | 100
45 | NS(=O)(=O)c1cc(C(=O)O)cc(N2CCCC2)c1Oc1ccccc1 [Piretanide] | 110
46 | CC(C)(C(=O)O)c1ccc(C(O)CCCN2CCC(C(O)(c3ccccc3)c3ccccc3)CC2)cc1 (stereo not given) [Fexofenadine HCl] | 94
47 | CC(C)(C(=O)O)c1ccc(C(O)CCCN2CCC(C(O)(c3ccccc3)c3ccccc3)CC2)cc1 (stereo not given) [Fexofenadine hydrochloride] | 104
48 | O=c1cc(N2CCOCC2)oc2c(-c3cccc4c3sc3ccccc34)cccc12 | 92.7
49 | NC(N)=S [Thiourea] | 103
50 | COc1cccc(-c2cc(NCc3ccc4c(c3)OCO4)nc(N)n2)c1 | 19.1
